In all, about 360,000 compounds went through this assay and about 25,000 (6.9%) were called active. The inconclusive results got no clear call from the source; some entries with a clear call stand among them for comparison. Calls follow the shape of the dose curve; as a rule, active = well fitted inhibition curve with a large enough effect; inconclusive = small, poorly fitted or top-dose-only effect; inactive = flat fitted curve, though single readings scatter. Where the call is inconclusive, the potency comes from a doubtful curve fit.
target: Luciferin 4-monooxygenase (Photinus pyralis) (UniProt P08659); test: qHTS profiling assay for firefly luciferase inhibitor/activator using purifed enzyme and Km concentrations of substrates (counterscreen for miR-21 project); settings: purified FLuc, luminescence inhibition; series mostly up to 57.5 µM; activity change, negative = inhibition: at the top concentration; also: nearly all actives have a fitted effect of over 55% in size;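 as to activity change, negative = inhibition: plate controls were vehicle for no effect and reference inhibitor for full effect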
Summary of the method: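 Purified P. pyralis luciferase, 10 nM final, with Km-level 10 uM D-luciferin and 10 uM ATP in 50 mM Tris acetate pH 7.5, 10 mM Mg acetate, 0.01% Tween-20, 0.05% BSA; 6-point qHTS titration about 60 µM downward; luminescence read.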
Potency is read from the fitted curve at half-maximal effect; tags tell the direction and shape of the fitted curve.

UniProt P08659, sequence (P08659 whole entry, looked up): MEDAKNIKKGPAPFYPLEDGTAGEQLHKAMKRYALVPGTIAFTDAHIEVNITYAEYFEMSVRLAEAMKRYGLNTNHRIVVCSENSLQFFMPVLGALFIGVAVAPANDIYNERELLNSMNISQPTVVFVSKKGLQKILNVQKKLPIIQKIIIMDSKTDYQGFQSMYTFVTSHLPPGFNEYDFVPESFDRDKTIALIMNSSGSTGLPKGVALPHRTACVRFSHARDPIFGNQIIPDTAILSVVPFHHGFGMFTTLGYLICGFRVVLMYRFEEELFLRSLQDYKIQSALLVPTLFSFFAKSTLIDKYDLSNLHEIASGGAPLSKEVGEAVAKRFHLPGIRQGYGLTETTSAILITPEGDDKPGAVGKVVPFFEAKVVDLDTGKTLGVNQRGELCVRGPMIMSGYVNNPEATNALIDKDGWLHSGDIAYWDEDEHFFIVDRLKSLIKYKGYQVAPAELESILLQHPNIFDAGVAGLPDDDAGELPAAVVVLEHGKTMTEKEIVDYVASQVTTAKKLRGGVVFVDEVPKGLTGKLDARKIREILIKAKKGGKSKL

SMILES	Potency	activity change, negative = inhibition
O=C(Nc1ccc(N2CCOCC2)cc1)Nc1ccc(Cl)c(Cl)c1	inconclusive: 16.9 µM [inhibitor, partial curve]	
COc1ccc(/C=N/NC(=O)c2[nH]nc3c2CCc2ccccc2-3)cc1OC		inactive: -7.07%
O=C(c1cc(-c2cccc(Cl)c2)on1)N1CCN(c2ccc(F)cc2)CC1		inactive: 1.34%
O=C(Nc1ccc(Cl)cc1)NC1CCCCC1	inconclusive: 2.39 µM [inhibitor, full curve]	
CCc1ccc(NC(=O)C(C)OC(=O)c2ccc(NS(=O)(=O)c3ccc(C)c([N+](=O)[O-])c3)cc2)cc1 (configuration not stated)	inconclusive: 37.9 µM [inhibitor, partial curve, poor fit]	
CCOc1ccccc1C(=O)NCc1nc2cccnc2n1Cc1ccc(C)cc1		inactive: -7.69%
Cc1cnc(NC(=O)c2ccccn2)s1	active: 2.69 µM	
O=C(CNC(=O)c1ccc(F)cc1)OCc1cc(=O)n2nc(C3CCCCC3)sc2n1		inactive: -4.43%
Cc1ccc(NC(=S)NC(=O)/C=C/c2ccco2)c(O)c1	inconclusive: 9.53 µM [inhibitor, partial curve]	
Cc1cc(C(=O)C(=O)Nc2nncs2)c(C)n1-c1ccc(Cl)cc1		inactive: -12.1%
CC(NC(=O)c1ccc(F)cc1)c1nc2ccccc2[nH]1 (configuration not stated)		inactive: 1.03%
N#CC(c1cccc(Cl)c1)c1ccc2c(C(F)(F)F)cc(C(F)(F)F)nc2n1 (configuration not stated)	inconclusive: 37.9 µM [inhibitor, single point]	
N/C(=N\OC(=O)COc1ccc(Br)cc1Cl)c1cccnc1	active: 8.49 µM	
Cc1ccccc1NC(=O)c1ccc2ccccc2c1	active: 15.1 µM	
CC(C)c1ccc(C(=O)Nc2nnc(S(=O)(=O)N3CCOCC3)s2)cc1	active: 16.9 µM	
O=c1[nH]c2ccccc2c2cn(-c3ccccc3)nc12	active: 13.5 µM	
O=C(c1ccc2c(c1)N(Cc1cccc(Cl)c1)C(=O)c1ccccc1S2=O)N1CCN(c2cccc(C(F)(F)F)c2)CC1 (configuration not stated)		inactive: -0.238%
O=C(CSc1nc2cc(S(=O)(=O)N3CCOCC3)ccc2o1)Nc1c(F)cccc1F	inconclusive: 21.3 µM [inhibitor, partial curve, poor fit]	
COc1cccc(CNC(=O)CN(C)S(=O)(=O)c2ccc(Br)s2)c1		inactive: -1.13%
CN(C)C(CNC(=O)c1ccccc1OCc1ccc(Cl)cc1)c1ccco1 (configuration not stated)		inactive: -21.6%
CCS(=O)(=O)N1CCN(c2ccc([N+](=O)[O-])c(NCC3CCCO3)c2)CC1 (configuration not stated)		inactive: 3.86%
c1ccc(N2CCN(c3nc(-c4ccccn4)nc4ccccc34)CC2)cc1	inconclusive: 37.9 µM [inhibitor, partial curve, poor fit]	
Cc1cnc(C(=O)Nc2nnc(C(C)C)s2)cn1	inconclusive: 16.9 µM [inhibitor, partial curve]	
Cc1cc(C)c(NS(=O)(=O)c2ccc(-c3coc(C)n3)cc2)c(C)c1		inactive: 1.21%

SMILES	Potency	activity change, negative = inhibition
COC(=O)c1[nH]c(C)c(/C(O)=C2\C(=O)C(=O)N(CCN(C)C)C2c2cccc(OC)c2OC)c1C (configuration not stated)	inconclusive: 8.49 µM [inhibitor, single point]	
CCOC(=O)C(=O)NC12CC3CC(CC(C3)C1)C2	inconclusive: 21.3 µM [inhibitor, partial curve, poor fit]	
CCOc1ncccc1C(=O)OCC(=O)Nc1ccc2c(c1)OCCO2	inconclusive: 16.9 µM [inhibitor, partial curve]	
O=C(NCc1ccc(Cl)cc1)C1CCN(S(=O)(=O)c2ccccc2)CC1	inactive	
O=C1C=CC(=O)N1c1ccc(Sc2ccc([N+](=O)[O-])cc2)cc1	inconclusive: 16.9 µM [inhibitor, partial curve]	
Cc1ccc(-n2nc(C)c(/C=N/NC(=O)c3cccnc3)c2Cl)cc1	inconclusive: 6.75 µM [inhibitor, single point]	
O=C(NC(=S)Nc1ccccc1Cl)c1cncc(Br)c1		inactive: 1.38%
Cc1cc(NS(=O)(=O)c2ccc3c(c2)OCCO3)no1		inactive: 2.65%
Oc1ccc(-c2nc3ccc4ccccc4c3c3c2CCC3)cc1O	active: 23.9 µM	
Cc1ccc(S(=O)(=O)N2CCOC2CNC(=O)C(=O)NCc2ccccc2)cc1 (configuration not stated)		inactive: 4.85%
COc1ccc(Cc2nnc(NS(=O)(=O)c3ccccc3)s2)cc1	inconclusive: 30.1 µM [inhibitor, partial curve, poor fit]	
O=C1Nc2ccc(Br)cc2C12NNc1ccccc1O2 (configuration not stated)	inconclusive: 37.9 µM [inhibitor, partial curve, poor fit]	
Oc1ccc(C2=NNC(c3ccc(O)cc3)=NN2)cc1		inactive: -2.42%
N=C1C(c2nc3ccccc3s2)=C(O)CN1Cc1ccccc1	inconclusive: 21.3 µM [inhibitor, partial curve, poor fit]	
C#CCOCCOCCOCCNc1nc(N2CCN(C(=O)CCCCCCCCCCNC(=O)[C@H]([C@@H](C)CC)n3cc(CCCCN=C(N)N)nn3)CC2)nc(N2CCN(C(=O)CCCCCCCCCCNC(=O)[C@H](CO)n3cc(CCCSC)nn3)CC2)n1	inconclusive: 37.9 µM [inhibitor, single point]	
Cc1ccc(NC(=O)CN2C(=O)N/C(=C/c3ccc(N4CCOCC4)cc3)C2=O)cc1	inconclusive: 6.75 µM [inhibitor, partial curve]	
CCC(C)C(=O)Nc1nc(-c2ccc3c(c2)NC(=O)CO3)cs1 (configuration not stated)	inconclusive: 33.8 µM [inhibitor, single point]	
COc1ccc(C)cc1Nc1nc(-c2c(C)[nH]c3ccccc23)cs1	active: 13.5 µM	
CCSc1nnc(NC(=O)c2ccccn2)s1	active: 8.49 µM	
CC(C)C(=O)N1CCN(c2nc3ccc(Cl)cc3s2)CC1	inconclusive: 23.9 µM [inhibitor, partial curve]	
CCOC(=O)C1(CC2CC2)CCN(C(=O)c2cc(C)nc3ccc(CC)cc23)CC1	inconclusive: 23.9 µM [inhibitor, partial curve, poor fit]	
O=C(O)CN1C(=O)/C(=C\C(Br)=C\c2ccccc2)SC1=S	active: 9.53 µM	
COc1ccc(C(=O)NCCc2nnc(SCC(=O)Nc3ccccc3)n2C)cc1	inconclusive: 26.9 µM [inhibitor, single point]	

From PubChem BioAssay AID588342 (National Center for Advancing Translational Sciences (NCATS), 2011)
